Results on 1 protein are retold here after PMC3712923, “Structure-Guided Design of an Engineered Streptavidin with Reusability to Purify Streptavidin-Binding Peptide Tagged Proteins or Biotinylated Proteins” (PLoS ONE, 2013).

The data set deals with the molecule itself. Nature of the data set: SEC-MALS; HPLC size exclusion (TSK-GEL SuperSW2000) with static and dynamic light scattering, room temperature, in the absence or presence of biotin. (In general: SEC sorts molecules by how far they enter the pores of the column.)

B1: SAVSBPM18 engineered streptavidin (S27A, G48T) (designed binder)
chain: not shown
notes: streptavidin with the double mutation S27A, G48T; Secreted by means of the B. subtilis levansucrase (SacB) signal peptide; also called streptavidin SAVSBPM18; source: B. subtilis WB800[pSAVSBPM18], secreted, purified (biotin-agarose)
Regarding B1, the “stoichiometry N” value was determined as 4.

The term stoichiometry N denotes the number of molecules, sites or subunits per partner or assembly.
